# The full ranking holds about 16,000 sequences; the median of “Z-score” is about -0.37, and the highest 2% start at about 3.2. Some of the results follow.
# Tested on: RBM10 RRM1-ZnF (GST-tagged construct)
# Test: RNAcompete 7-mer binding Z-score; higher = stronger binding preference
# Protocol: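 RNAcompete: 20 pmol GST-tagged RBM10 RNA-binding constructs were incubated with a designed RNA pool of about 241,000 sequences up to 41 nt (1.5 nmol) on glutathione beads for 30 min at 4 °C and washed. Bound RNAs were identified by microarray hybridisation. Each RNA 7-mer is scored by a one-sided Z-score of its enrichment, computed over probes that contain the 7-mer within longer pool sequences.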
row,Sequence,RNAcompete 7-mer binding Z-score
1,GGGUGGA,4.53
2,GAUCUCG,-0.707
3,UCUAAUU,-0.818
4,GAAUUGG,2.41
5,AUCAAUC,-0.561
6,CUAUGUU,-0.513
7,CGCCAUC,-0.607
8,CAAUACU,-0.688
9,CGGAAUU,0.439
10,AGUACCU,-0.694
11,CGUCUGU,-0.558
12,AGGACCU,-0.571
13,CGUUCAC,-0.578
14,GCGUGGA,2.44
15,GCUGUAA,-0.327
16,GGGAUUA,2.55
17,GACAUGG,2.42
18,AUCGUAC,-0.386
19,UCGGUGA,0.452
20,CACAAUC,-0.938
21,AAGGGCU,1.62
22,AACAUCG,-0.415
23,AUAAACG,-0.269
24,CAAAGUG,0.205

row,Sequence,RNAcompete 7-mer binding Z-score
1,GGGAUGU,3.21
2,CCCUCUC,-0.659
3,CAGCGGA,0.927
4,GAGGUUU,1.04
5,AUUUUCC,-0.87
6,CGGCGAG,0.979
7,AGACAUA,-0.197
8,GGAUAUC,0.794
9,CGUCACA,-0.21
10,GGUACGC,0.836
11,CAGUCAU,-0.685
12,UAGUACU,-0.34
13,ACUGGGG,1.89
14,UAGCAAU,-0.272
15,UCUUCGG,-0.477
16,GCAUCCA,-0.535
17,CUCGAUU,-0.75
18,GCUUUUG,-0.639
19,GCGUCUC,-0.665
20,GCGACUA,-0.288
21,AGAUGUG,0.936
22,UAGAUAC,-0.422
23,CUGAGUA,-0.366
24,GUAGCGA,0.683

row,Sequence,RNAcompete 7-mer binding Z-score
1,CGCCCUG,-0.292
2,GAAGUUC,-0.353
3,AAGUCCA,-0.565
4,CUAAUGG,0.306
5,AACACUC,-0.672
6,UCAGGCG,0.261
7,UAGGGCA,1.93
8,GGGUCGG,2.28
9,GCUCGGA,0.111
10,CUCAGCG,-0.36
11,UUUCCCA,-0.652
12,UGCGAAG,0.218
13,UCGGUAG,0.42
14,UCUCUGC,-0.811
15,UGGCCUG,-0.376
16,GUGACUC,-0.246
17,UCCAUGC,-0.623
18,GGUGUUA,1.13
19,CUUAGUA,-0.61
20,UACCCUG,-0.409
21,GCAAGAU,-0.145
22,ACUUGGU,-0.103
23,ACCAUAU,-0.776
24,GUCAUGU,-0.175

row,Sequence,RNAcompete 7-mer binding Z-score
1,AGAGACG,0.205
2,UGUAUCC,-0.711
3,GUCCGGA,0.0625
4,CAAUAAG,-0.285
5,CAGGCAC,0.095
6,GCUACUA,-0.454
7,GACCCCG,-0.448
8,GUUUUUU,-0.292
9,GUGAAUC,0.228
10,AAUCUGC,-0.902
11,GUCCACG,-0.266
12,UCUGACU,-0.655
13,CCUGUCA,-0.678
14,UUGUCCU,-0.668
15,GUUGCCG,0.0105
16,GGCAAUU,-0.0252
17,GGCCACA,-0.162
18,CGACCCU,-0.539
19,UAGGCUC,-0.243
20,UCUCCAC,-0.763
21,UGGAAUG,2.39
22,UAACAGG,1.03
23,AUGGUGG,3.82
24,GCGCCAC,-0.21

row,Sequence,RNAcompete 7-mer binding Z-score
1,AACAAAU,-0.389
2,GAAACUU,-0.681
3,GUUAAAA,-0.0902
4,CGCAAUU,-0.789
5,CCUGAGG,0.339
6,GGCAUCG,0.475
7,AAGGUGU,2.55
8,UCGGAGC,0.0138
9,AGUGAAC,0.134
10,AGCCGAU,-0.6
11,UAGGACC,0.391
12,AUUUCGG,-0.279
13,GGGUCUA,0.628
14,AUCCGUC,-0.766
15,GUAAUUG,0.465
16,CGGCGAC,-0.0642
17,CGGCAGA,0.339
18,GUUGUUU,-0.00896
19,AAUGAAC,-0.269
20,ACAUGAU,-0.259
21,AUGCGGA,0.962
22,AGAUCAG,0.261
23,UAACCUA,-0.824
24,GACAAGA,0.176

row,Sequence,RNAcompete 7-mer binding Z-score
1,AGAUGUA,0.235
2,ACUGAAU,-0.5
3,GCUAUUA,-0.259
4,AUUCACA,-0.662
5,GGAAUAA,1.2
6,AGUUGGA,1.87
7,AACUGAU,-0.201
8,GCAUGUC,-0.35
9,UAUCCUA,-0.902
10,UCCGAGC,-0.72
11,AGCUUGU,-0.704
12,CAUGCAC,-0.548
13,CUCUGUA,-0.821
14,CGAUUUG,-0.584
15,AGGGCAA,1.73
16,CGUAGUU,-0.483
17,UACAUUA,-0.668
18,AUACCUC,-0.717
19,GUAGCCG,-0.0869
20,AUAGCUU,-0.714
21,UUGUCAU,-0.759
22,UGGUUCA,-0.0479
23,CUGUUGU,-0.464
24,GGGUACU,1.92

row,Sequence,RNAcompete 7-mer binding Z-score
1,GGAGUAC,1.24
2,AUAACAC,-0.477
3,GGAAAAU,1.33
4,CGCAGUA,-0.194
5,UCUUCAC,-0.811
6,UGCUACG,-0.448
7,AAUUUCU,-0.857
8,GCCGCGU,-0.584
9,ACUAAGU,-0.412
10,GCACCUA,-0.552
11,UGAUAAC,-0.386
12,GUACACC,-0.318
13,GUCAACU,-0.405
14,GCAAGCU,-0.542
15,UGGGUCU,1.12
16,UCGAAUA,-0.558
17,AGCAGCG,0.735
18,CAAGGGG,2.79
19,CUCCUCA,-0.675
20,ACCGCUU,-0.948
21,UUCUUAG,-0.698
22,UUCCGGG,0.397
23,UCAUCCU,-0.782
24,GCGCUGA,-0.184

row,Sequence,RNAcompete 7-mer binding Z-score
1,AAGGUUA,2.95
2,GUGGGGA,4.7
3,AGGUUUC,0.03
4,GUAGAGU,1.18
5,UCAAUCG,-0.655
6,UGAAUGA,0.0528
7,UAGUCAC,-0.519
8,GCCAGGC,-0.0837
9,GCAUAGA,0.00404
10,AGUAGCU,-0.451
11,CCUGCUG,-0.483
12,GAUACUG,0.0333
13,CGAGCCA,-0.305
14,GCCAUAG,-0.415
15,UGCGGUU,0.573
16,ACAGAAU,-0.318
17,GCCGCCU,-0.701
18,CUCAUUA,-0.831
19,AUGGCAC,0.218
20,ACCGCCG,-0.626
21,AAAGCGG,1.55
22,UAAGGGU,3.44
23,CUGCUUU,-0.912
24,UUGCAUA,-0.379

row,Sequence,RNAcompete 7-mer binding Z-score
1,CAACUUU,-0.847
2,GUCCCGC,-0.334
3,CCGUGUG,-0.373
4,GGCAGGA,2.31
5,UACAGCC,-0.746
6,CACCUUA,-0.798
7,GCCGCCA,-0.418
8,UGAUACU,-0.34
9,GUUGCAC,-0.0382
10,UGCCAGC,-0.626
11,GAUAAGU,0.313
12,CGCUGAC,-0.626
13,UGGACUA,0.417
14,ACACAUC,-0.477
15,UAGCGCC,-0.574
16,ACCCGUC,-0.808
17,GCGGUCG,0.69
18,UCUAUGC,-0.805
19,ACGUCAC,-0.266
20,CUGUCGA,-0.756
21,GGUUUGA,1.07
22,ACGUUUG,-0.451
23,GCGAUCG,0.222
24,GCACCAC,-0.165

row,Sequence,RNAcompete 7-mer binding Z-score
1,AAAGGUG,3.71
2,UUCUGGC,-0.704
3,GUAGCGC,0.183
4,AUGCACA,-0.149
5,AGGGUGG,4.42
6,UGCGCGA,-0.249
7,GGAUGCA,1.79
8,UAAACAC,-0.405
9,CAGUACU,-0.587
10,AAGCGGU,1.1
11,UAUCCGU,-0.714
12,CCGGAAA,-0.142
13,UCUGAGA,-0.464
14,GCCCGAA,-0.591
15,UCGCCGG,-0.34
16,UGCUGAU,-0.139
17,ACAGCGU,-0.288
18,GACCACU,-0.571
